Paper PMC5029660, “The DEK oncogene activates VEGF expression and promotes tumor angiogenesis and growth in HIF-1α-dependent and -independent manners”
Results are given in words; binding and its absence hold for the method and conditions named. For some of these results: Binding seen in cells or lysates may run through a third protein. Some binding calls cover weakened binding; strength is not graded here. For some of these results: Where a sequence is shown, tags or fusion partners need not be part of it.

Chains of the proteins cited; added tags and fusions are not shown.
UniProt Q09472: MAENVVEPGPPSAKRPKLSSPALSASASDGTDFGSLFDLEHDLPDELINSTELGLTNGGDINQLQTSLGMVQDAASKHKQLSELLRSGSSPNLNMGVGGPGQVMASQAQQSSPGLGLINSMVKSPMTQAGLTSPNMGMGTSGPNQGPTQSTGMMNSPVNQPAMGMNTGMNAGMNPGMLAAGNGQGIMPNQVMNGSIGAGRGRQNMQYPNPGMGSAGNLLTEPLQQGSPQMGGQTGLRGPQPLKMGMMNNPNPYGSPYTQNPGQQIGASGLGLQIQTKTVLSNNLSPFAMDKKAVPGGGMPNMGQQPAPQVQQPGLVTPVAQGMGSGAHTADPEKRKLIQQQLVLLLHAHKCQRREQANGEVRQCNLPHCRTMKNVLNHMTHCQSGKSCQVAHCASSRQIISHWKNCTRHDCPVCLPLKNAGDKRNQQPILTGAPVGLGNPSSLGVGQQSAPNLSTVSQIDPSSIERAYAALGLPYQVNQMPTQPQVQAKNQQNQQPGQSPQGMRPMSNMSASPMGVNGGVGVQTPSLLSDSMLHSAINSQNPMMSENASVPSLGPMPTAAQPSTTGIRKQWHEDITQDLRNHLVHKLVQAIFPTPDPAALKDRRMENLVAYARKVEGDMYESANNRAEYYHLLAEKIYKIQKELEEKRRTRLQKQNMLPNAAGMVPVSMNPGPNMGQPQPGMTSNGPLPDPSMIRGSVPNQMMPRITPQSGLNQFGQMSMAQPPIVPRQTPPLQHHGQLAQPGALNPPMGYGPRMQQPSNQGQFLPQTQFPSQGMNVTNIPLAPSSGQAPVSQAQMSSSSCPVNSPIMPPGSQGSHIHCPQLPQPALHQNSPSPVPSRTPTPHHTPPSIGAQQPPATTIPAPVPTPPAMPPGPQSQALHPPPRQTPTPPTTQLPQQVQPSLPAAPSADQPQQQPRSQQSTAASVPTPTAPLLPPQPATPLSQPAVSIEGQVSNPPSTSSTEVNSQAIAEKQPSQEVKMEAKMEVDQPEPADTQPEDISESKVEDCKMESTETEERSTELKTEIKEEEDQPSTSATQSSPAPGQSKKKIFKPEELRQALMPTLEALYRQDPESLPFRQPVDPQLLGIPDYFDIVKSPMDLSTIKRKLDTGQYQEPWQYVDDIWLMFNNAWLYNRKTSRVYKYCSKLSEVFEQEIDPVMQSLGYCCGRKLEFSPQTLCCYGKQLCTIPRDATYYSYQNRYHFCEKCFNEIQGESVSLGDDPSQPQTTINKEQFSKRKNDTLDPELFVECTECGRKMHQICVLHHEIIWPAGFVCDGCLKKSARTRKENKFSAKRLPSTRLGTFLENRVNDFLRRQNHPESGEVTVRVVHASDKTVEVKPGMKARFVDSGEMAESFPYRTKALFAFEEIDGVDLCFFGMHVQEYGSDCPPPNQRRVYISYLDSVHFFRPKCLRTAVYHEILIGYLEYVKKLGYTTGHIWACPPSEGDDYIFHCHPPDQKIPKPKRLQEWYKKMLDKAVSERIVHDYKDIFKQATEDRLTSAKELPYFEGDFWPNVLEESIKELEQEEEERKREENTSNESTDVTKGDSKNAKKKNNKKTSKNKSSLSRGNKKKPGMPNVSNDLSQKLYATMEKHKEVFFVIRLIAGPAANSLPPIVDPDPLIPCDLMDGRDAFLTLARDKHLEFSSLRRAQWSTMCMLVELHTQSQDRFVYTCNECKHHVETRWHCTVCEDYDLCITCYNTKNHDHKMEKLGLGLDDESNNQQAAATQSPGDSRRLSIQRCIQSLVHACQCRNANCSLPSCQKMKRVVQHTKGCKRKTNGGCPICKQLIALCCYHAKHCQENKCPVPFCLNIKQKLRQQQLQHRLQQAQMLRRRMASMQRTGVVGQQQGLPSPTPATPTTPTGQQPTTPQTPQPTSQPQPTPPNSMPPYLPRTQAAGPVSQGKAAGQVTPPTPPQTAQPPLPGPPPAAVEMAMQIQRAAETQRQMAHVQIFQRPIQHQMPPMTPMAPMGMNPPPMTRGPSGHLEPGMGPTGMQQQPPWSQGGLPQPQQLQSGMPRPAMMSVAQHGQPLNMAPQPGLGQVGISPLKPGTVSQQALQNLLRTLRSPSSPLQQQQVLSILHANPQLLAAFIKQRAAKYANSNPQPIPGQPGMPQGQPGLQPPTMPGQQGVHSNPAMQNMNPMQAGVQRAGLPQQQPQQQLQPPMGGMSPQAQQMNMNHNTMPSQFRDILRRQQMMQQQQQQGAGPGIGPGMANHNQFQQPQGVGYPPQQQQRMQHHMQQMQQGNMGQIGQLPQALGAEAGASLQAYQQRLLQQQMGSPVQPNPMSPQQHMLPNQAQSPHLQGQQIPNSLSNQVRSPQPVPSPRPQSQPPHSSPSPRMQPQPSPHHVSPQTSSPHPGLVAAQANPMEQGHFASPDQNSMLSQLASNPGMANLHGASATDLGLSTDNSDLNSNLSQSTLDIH

What was measured:
[1] = biological target: T1, endogenous DEK (human (endogenous in MCF-7)) (UniProt P35659); test: co-IP; reciprocal co-IP of endogenous proteins in MCF-7 cells under normoxic or hypoxic conditions for 24 h; antibodies against DEK, HIF-1α or p300
T1 sequence: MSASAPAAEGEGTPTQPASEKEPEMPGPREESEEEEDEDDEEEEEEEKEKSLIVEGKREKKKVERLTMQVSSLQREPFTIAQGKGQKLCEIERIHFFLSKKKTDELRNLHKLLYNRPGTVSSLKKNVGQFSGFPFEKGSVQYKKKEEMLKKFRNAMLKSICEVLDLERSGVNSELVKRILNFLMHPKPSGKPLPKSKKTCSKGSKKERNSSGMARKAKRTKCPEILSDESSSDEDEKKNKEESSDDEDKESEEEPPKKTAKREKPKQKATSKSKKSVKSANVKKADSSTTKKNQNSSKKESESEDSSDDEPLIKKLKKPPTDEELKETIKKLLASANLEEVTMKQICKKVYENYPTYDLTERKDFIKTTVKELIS

[2] = biological target: T1, endogenous DEK (human (endogenous in MCF-7)); test: re-ChIP; MCF-7 cells, hypoxia 24 h; sequential chromatin immunoprecipitation for DEK and HIF-1α, real-time PCR of the HRE and DRE1 sites of the VEGF promoter
[3] = biological target: T2, FLAG-tagged DEK (188-375) (UniProt P35659); test: co-IP; HEK293T cells cotransfected with FLAG- and MYC-tagged proteins; lysates immunoprecipitated with anti-FLAG or anti-MYC, immunoblot
T2 sequence: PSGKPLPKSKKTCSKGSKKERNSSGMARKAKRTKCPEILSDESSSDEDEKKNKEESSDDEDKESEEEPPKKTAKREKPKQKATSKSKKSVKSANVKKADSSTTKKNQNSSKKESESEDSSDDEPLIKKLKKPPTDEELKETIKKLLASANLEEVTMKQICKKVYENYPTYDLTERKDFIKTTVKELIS

[4] = biological target: T3, FLAG-tagged DEK (UniProt P35659); test: as above
T3 sequence: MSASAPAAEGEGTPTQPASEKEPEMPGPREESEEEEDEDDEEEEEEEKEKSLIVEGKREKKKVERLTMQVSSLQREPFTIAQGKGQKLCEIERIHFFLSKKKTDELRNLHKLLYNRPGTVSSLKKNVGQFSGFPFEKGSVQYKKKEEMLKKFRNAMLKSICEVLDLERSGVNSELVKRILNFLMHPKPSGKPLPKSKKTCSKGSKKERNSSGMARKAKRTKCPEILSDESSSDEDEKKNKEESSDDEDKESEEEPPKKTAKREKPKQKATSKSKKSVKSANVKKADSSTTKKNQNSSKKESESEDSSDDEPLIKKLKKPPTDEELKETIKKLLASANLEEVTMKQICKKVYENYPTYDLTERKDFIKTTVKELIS

[5] = biological target: T4, FLAG-tagged DEK (1-187) (UniProt P35659); test: as above
T4 sequence: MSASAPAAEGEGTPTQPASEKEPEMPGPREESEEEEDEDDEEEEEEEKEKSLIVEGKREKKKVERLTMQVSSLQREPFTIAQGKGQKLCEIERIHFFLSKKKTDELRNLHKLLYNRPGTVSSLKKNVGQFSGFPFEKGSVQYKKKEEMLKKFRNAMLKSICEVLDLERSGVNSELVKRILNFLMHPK

[6] = biological target: T3, FLAG-tagged DEK; test: co-IP; co-IP with re-IP; HEK293T cotransfected with MYC-HIF-1α, FLAG-DEK and HA-p300; 1st IP anti-FLAG, eluted with FLAG peptide, re-IP with anti-Myc or normal IgG
[7] = biological target: T5, MYC-tagged DEK (UniProt P35659); test: co-IP; HEK293T cells cotransfected with FLAG- and MYC-tagged proteins; lysates immunoprecipitated with anti-FLAG or anti-MYC, immunoblot
T5 sequence: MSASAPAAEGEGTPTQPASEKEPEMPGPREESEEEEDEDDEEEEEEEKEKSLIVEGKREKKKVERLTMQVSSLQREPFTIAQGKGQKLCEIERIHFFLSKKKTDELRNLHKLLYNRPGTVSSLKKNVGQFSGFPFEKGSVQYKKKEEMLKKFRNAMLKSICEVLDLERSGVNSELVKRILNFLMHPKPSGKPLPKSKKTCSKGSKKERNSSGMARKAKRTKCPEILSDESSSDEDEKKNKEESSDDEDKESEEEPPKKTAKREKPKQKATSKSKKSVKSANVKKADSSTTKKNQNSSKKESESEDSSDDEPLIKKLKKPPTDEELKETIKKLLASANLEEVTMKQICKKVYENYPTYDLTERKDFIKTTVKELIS

[8] = biological target: T6, GST-DEK (UniProt P35659); test: pull-down; GST pull-down; purified His-tagged HIF-1α incubated with purified GST-DEK or GST beads; immunoblot with anti-His; both purified
T6 sequence: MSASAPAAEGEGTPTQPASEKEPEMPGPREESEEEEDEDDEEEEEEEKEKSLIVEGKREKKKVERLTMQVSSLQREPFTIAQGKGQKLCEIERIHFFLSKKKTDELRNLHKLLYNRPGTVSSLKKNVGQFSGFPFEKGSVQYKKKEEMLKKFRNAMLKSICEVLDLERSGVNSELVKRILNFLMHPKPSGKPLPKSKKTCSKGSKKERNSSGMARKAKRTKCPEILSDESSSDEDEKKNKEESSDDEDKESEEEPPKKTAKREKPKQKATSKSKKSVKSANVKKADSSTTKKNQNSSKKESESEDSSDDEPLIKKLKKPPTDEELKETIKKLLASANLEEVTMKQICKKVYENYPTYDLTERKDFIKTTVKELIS

[9] = biological target: FLAG-tagged HIF-1α (1-166) (UniProt Q16665); test: co-IP; HEK293T cells cotransfected with FLAG- and MYC-tagged proteins; lysates immunoprecipitated with anti-FLAG or anti-MYC, immunoblot
[10] = biological target: FLAG-tagged HIF-1α (482-826) (UniProt Q16665); test: as above
[11] = biological target: FLAG-tagged HIF-1α (167-481) (UniProt Q16665); test: as above

endogenous HIF-1α (from UniProt Q16665 1-826)
binding [1]: binds | binding [2]: binds

MYC-tagged HIF-1α (from UniProt Q16665 1-826)
binding [3]: binds | binding [4]: binds | binding [5]: no binding | binding [6]: binds

FLAG-tagged p300 (from UniProt Q09472 1-2414)
binding [7]: binds

endogenous p300 (from UniProt Q09472 1-2414)
binding [1]: binds

HA-tagged p300 (from UniProt Q09472 1-2414)
binding [6]: binds

His-tagged HIF-1α (from UniProt Q16665 1-826)
binding [8]: binds

B1: MYC-tagged DEK (protein, UniProt P35659 1-375)
chain: MSASAPAAEGEGTPTQPASEKEPEMPGPREESEEEEDEDDEEEEEEEKEKSLIVEGKREKKKVERLTMQVSSLQREPFTIAQGKGQKLCEIERIHFFLSKKKTDELRNLHKLLYNRPGTVSSLKKNVGQFSGFPFEKGSVQYKKKEEMLKKFRNAMLKSICEVLDLERSGVNSELVKRILNFLMHPKPSGKPLPKSKKTCSKGSKKERNSSGMARKAKRTKCPEILSDESSSDEDEKKNKEESSDDEDKESEEEPPKKTAKREKPKQKATSKSKKSVKSANVKKADSSTTKKNQNSSKKESESEDSSDDEPLIKKLKKPPTDEELKETIKKLLASANLEEVTMKQICKKVYENYPTYDLTERKDFIKTTVKELIS
binding [9]: no binding | binding [10]: no binding | binding [11]: binds
